The values that follow come from PMC4336329 (PLoS ONE, 2015).

The campaign covered roughly 310,000 compounds. About 2,200 (0.71%) showed an effect of 50% or more. The effect is printed as a negative number. This is one part of the list.

For this test, the target named is human ether-à-go-go-related gene (hERG) potassium channel (human, UniProt Q12809). Description: primary screen, population patch clamp on CHO cells stably expressing hERG.
Chain of human ether-à-go-go-related gene (hERG) potassium channel (Q12809 whole entry, looked up): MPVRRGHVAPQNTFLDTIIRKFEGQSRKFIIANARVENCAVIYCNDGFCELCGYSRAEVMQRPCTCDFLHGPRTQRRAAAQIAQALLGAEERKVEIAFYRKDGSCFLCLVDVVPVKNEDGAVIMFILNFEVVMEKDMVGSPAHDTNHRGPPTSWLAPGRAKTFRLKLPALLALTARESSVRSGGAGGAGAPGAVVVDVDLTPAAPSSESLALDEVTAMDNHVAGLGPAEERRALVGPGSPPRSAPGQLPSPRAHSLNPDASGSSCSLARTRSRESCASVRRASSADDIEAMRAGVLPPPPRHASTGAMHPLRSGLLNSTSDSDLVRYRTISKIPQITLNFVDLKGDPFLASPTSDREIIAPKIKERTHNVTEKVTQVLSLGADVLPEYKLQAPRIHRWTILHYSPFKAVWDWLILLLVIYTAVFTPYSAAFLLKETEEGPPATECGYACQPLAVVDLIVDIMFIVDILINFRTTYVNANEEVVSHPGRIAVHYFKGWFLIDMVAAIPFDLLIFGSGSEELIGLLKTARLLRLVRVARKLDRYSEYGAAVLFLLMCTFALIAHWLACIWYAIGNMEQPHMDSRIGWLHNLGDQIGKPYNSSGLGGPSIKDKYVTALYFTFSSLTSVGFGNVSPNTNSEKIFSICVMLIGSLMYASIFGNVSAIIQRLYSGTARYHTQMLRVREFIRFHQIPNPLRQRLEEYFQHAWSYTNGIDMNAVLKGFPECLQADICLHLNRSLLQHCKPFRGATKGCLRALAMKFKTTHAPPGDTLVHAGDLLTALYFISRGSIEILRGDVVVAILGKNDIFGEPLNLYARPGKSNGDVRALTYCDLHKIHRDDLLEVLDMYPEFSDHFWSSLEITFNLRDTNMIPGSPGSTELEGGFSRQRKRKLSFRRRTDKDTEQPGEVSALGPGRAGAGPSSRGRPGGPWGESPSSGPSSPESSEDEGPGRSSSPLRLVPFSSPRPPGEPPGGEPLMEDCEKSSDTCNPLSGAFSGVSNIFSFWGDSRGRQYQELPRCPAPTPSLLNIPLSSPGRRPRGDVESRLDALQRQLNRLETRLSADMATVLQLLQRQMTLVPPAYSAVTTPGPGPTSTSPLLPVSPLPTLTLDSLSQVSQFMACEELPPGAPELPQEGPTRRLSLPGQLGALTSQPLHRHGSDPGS
In the case of `Cc1cccc(C(=O)Oc2ccc(/C=N/NC(=O)c3ccc(O)cc3)cc2)c1`, the “hERG current change (%, negative = inhibition) at 1uM” value was determined as 19.5%.

Turning to `Cc1c(C(=O)NCCCn2ccnc2)oc2ccccc12`, the “hERG current change (%, negative = inhibition) at 1uM” value is reported as 18.6%.

Turning to `Cc1cccc(C)c1OCc1cc(C(=O)N(C)Cc2cc(C3CC3)n[nH]2)no1`, the “hERG current change (%, negative = inhibition) at 1uM” value came out at 2.19%.

As to `COC(=O)c1c(-c2ccccc2OC)sc2ccccc12`, the “hERG current change (%, negative = inhibition) at 1uM” value came out at 12.9%. With `Cc1cc(C)c(S(=O)(=O)N2CCC(C(=O)OCc3c(C)noc3C)CC2)c(C)c1` the figure was -5.34%; with `CCCCSc1nc(N)c(C#N)c(-c2cccs2)c1C#N`, -2.59%. Turning to `Cc1cccc(C)c1NC(=O)COC(=O)c1ccc([N+](=O)[O-])o1`, the “hERG current change (%, negative = inhibition) at 1uM” value turned out to be 12.3%. Regarding `CCc1nc(SCc2ccc([N+](=O)[O-])cc2)n[nH]1`, the “hERG current change (%, negative = inhibition) at 1uM” value is recorded as -2.87%. For `O=C(Nc1nnc(COc2ccc(F)cc2)s1)c1ccco1`, the “hERG current change (%, negative = inhibition) at 1uM” value is 12.3%. With `CN(CC1CCCO1)S(=O)(=O)c1ccc(C(=O)Nc2ccc([N+](=O)[O-])cc2)cc1` (stereo not drawn) the figure was -1.46%; with `N#CCCN(C(=O)COC(=O)Cc1ccc(Br)cc1)c1ccccc1`, 7.87%. With `CN(C)S(=O)(=O)c1ccc(C(=O)NCC(C)(C)CN=C2NS(=O)(=O)c3ccccc32)cc1` the figure was 1.35%; with `COC(=O)c1cccc(NC(=S)Nc2ccccc2Cl)c1`, 5.66%. In the case of `Cc1ccc(OCC(=O)N[C@@H](C)c2nnc3ccccn23)cc1C` it was 9.22%; in that of `Cc1nc(-c2ccc(Cl)cc2)sc1C1(C)CC(c2ccncc2)=NO1` (stereo not drawn), 8.44%; in that of `CCn1c(SCCN2CCCCC2)nnc1-c1ccc(S(=O)(=O)N2CCOCC2)cc1.O=C(O)C(=O)O`, -0.721%.

With `Cc1ccc(N(CC(=O)Nc2ccc3c(c2)OCCO3)S(C)(=O)=O)cc1`, the “hERG current change (%, negative = inhibition) at 1uM” value is on record as 7.74%. In the case of `CCCNC(=O)C12CCC(C)(C(=O)C1Br)C2(C)C` (stereo not drawn) it was 8.44%. With `CCCc1cc(=O)oc2c(C)c(OC(C)C(=O)NCC(O)c3ccccc3)ccc12` (stereo not drawn) the figure was -0.736%; with `Cc1nnc(NC(=O)c2ccc(F)c(S(=O)(=O)N3CCCCC3)c2)s1`, 9.22%; with `COc1ccc(CNC(=O)Cc2c(C(=O)O)[nH]c3ccccc23)c(OC)c1`, 14%. With `CC(=O)NC(=S)NNC(=O)C(c1ccccc1)c1ccccc1` the figure was 15%; with `CCN(CC)CCCNC(=O)CSc1nc(C)cc(C)n1`, 10.4%; with `CC(C)C[C@H](NC(=O)OC(C)(C)C)C(=O)NCC1CCC(C(=O)N[C@@H](Cc2ccccc2)C(=O)O)CC1` (stereo partly drawn), 8.23%. With `CCOC(=O)n1c(=O)n(Cc2c(Cl)cccc2Cl)c2ccccc21`, the “hERG current change (%, negative = inhibition) at 1uM” value is 4.38%. With `CCC(c1nnc(SCC(=O)Nc2cccnc2Cl)n1-c1ccccc1)N(C)C` (stereo not drawn) the figure was 10.4%; with `COc1ccc(-c2nc(CS(=O)CC(=O)NC3CCCC3)c(C)o2)cc1` (stereo not drawn), 3.33%.

Turning to `COc1cccc(-c2nc(CS(=O)(=O)CC(=O)N3CCN(C)CC3)c(C)o2)c1`, the “hERG current change (%, negative = inhibition) at 1uM” value came to 7.44%. In the case of `Cc1cc(OCCN2CCOCC2)nc2ccccc12.Cl` it was 8%. With `CCOC(=O)C1=C(c2ccccc2)Nc2ncnn2C1c1cccc(O)c1` (stereo not drawn) the figure was 9.66%; with `COc1cc(NS(=O)(=O)c2ccc(NC(=S)NC(=O)c3ccco3)cc2)nc(OC)n1`, 4.05%. As for `Cc1ccc(CN=c2c([N+](=O)[O-])nn(-c3ccc(Cl)cc3)n2O)cc1`, the “hERG current change (%, negative = inhibition) at 1uM” value is on record as 11%. In the case of `CCOC(=O)c1ccc(NC(=O)CCc2nc(-c3ccccc3Cl)no2)cc1` it was 17.1%; in that of `COc1ccccc1S(=O)(=O)N1CCC(C(=O)O)(c2ccccc2)CC1`, 9.27%. In the case of `CSc1ncc(CN2CCN(C3CCCC3)C(CCO)C2)cn1` (stereo not drawn) it was 11.4%. In the case of `COc1ccnc(Oc2ccccc2)c1-c1ncn[nH]1` it was 14.7%. Regarding `CN(CC(=O)NCc1ccccc1)Cc1ccc(Cl)cc1`, the “hERG current change (%, negative = inhibition) at 1uM” value was determined as 2.36%.

For the molecule `CC(c1nc2ccccc2n1Cc1ccccc1)N1CCCCC1` (stereo not drawn), the “hERG current change (%, negative = inhibition) at 1uM” value is listed as -26.5%. `O=C(O)c1ccccc1NCc1cccnc1`: the “hERG current change (%, negative = inhibition) at 1uM” value was 14%. With `Cc1cccc(C)c1NC(=O)C1CCN(S(C)(=O)=O)CC1` the figure was 10.6%; with `Cc1c(Cl)ccc(S(=O)(=O)N2CCN=C2c2ccccc2)c1Cl`, 9.95%. In the case of `CCc1c(-c2ccccc2)nc2sc3c(c2c1N)CCCC3` it was 16%; in that of `Cc1ccc(NC(=O)CCC(=O)NNC(=S)Nc2ccccc2)c(C)c1`, 8.31%; in that of `COC(=O)COc1ccc(/C=C2\SC(=O)N(CC(=O)Nc3ccccc3F)C2=O)cc1`, 13.9%. With `CCNS(=O)(=O)c1cc(OC)ccc1OC` the figure was 13%; with `Cc1cc(NC(=O)OC(C)C)ccc1-c1ccc(NC(=O)OC(C)C)cc1C`, 14.8%; with `CCC/C=N/NC(=O)c1[nH]c2c([N+](=O)[O-])cccc2c1C`, 10.3%. `O=C(CC1SC(=O)N(Cc2ccccc2)C1=O)Nc1nccs1` (stereo not drawn): the “hERG current change (%, negative = inhibition) at 1uM” value stood at 4.38%. In the case of `COc1ccccc1Nc1nc(N)nc(CSC(=S)N2CC(C)CC(C)C2)n1` (stereo not drawn) it was -0.821%; in that of `COc1cccc(NC(=O)Nc2nnc(Cc3ccc(F)cc3)s2)c1`, 14.3%; in that of `COc1ccc(NC(=O)CN2C(=O)COc3ccc(S(=O)(=O)N4CCOCC4)cc32)c(OC)c1`, 12.2%. In the case of `Cc1ccc(C)c(CN2CCC(n3nccc3NC(=O)C3CCCC3)CC2)c1` it was -49%. With `Clc1ccc(COc2ccccc2-c2ccnc3ncnn23)cc1` the figure was -8.35%; with `COc1cccc(C(=O)NCC(=O)NCc2cc(=O)n(C)c(=O)n2C)c1`, 19.4%; with `Cc1nc(NC(=O)c2c(-c3ccccc3)noc2C)sc1C(=O)N(C)C`, 16.3%.

As to `COc1ccc(NC(=O)CSc2nc3ccncc3[nH]2)c(OC)c1`, the “hERG current change (%, negative = inhibition) at 1uM” value turned out to be 13.1%. In the case of `CCCC(=O)NC(c1ccc(OC)cc1)c1c(O)ccc2ccccc12` (stereo not drawn) it was 15.8%.
